Results as given in article PMC12040169 (PLOS Biology, 2025).
Some of the results follow.

tested on: T1, C. trachomatis L2/434/Bu expressing GFP (CTL2-GFP); design: species or system HeLa; C. trachomatis total inclusion area by high-content imaging, normalised to DMSO; conditions: total inclusion area; 28.5 h, 10 µM; inhibitor
T1 construct: L2/434/Bu GFP intracellular growth in HeLa cells
Outline: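 High-content imaging followed the bulk GFP/resorufin measurement: fixed, Hoechst-stained cells were scored for GFP inclusions and host nuclei per well. Total inclusion area and count served as growth proxies, nuclei number as the viability proxy. MIC calculation matched the bulk assay.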

Row | Compound | % of control remaining
1 | O=S(=O)(NC1CCCCC1Sc1nnc(Nc2ccccc2)s1)c1ccccc1 (centres unmarked) [CBK266378] | 120.494
2 | COc1ccccc1N/C(=N\OCc1ccc(Cl)cc1Cl)c1nonc1N [CBK018391] | 66.5422
3 | COc1cc(/C=c2\sc3nc(-c4ccccc4OC(C)=O)nn3c2=O)ccc1OCc1ccccc1 [CBK264575] | 112.479
4 | CCn1c(CN2CCOCC2)nnc1SCC(=O)Nc1cc(Cl)ccc1C [CBK270183] | 96.652
5 | COc1cccc(C2(NC(=O)CCn3nc(C)cc3C)CCCC2)c1 [CBK283749] | 69.3758
6 | COc1cc(-c2cn3ccnc3c(NCC3CC3)n2)ccc1O [CBK037538] | 101.252
7 | O=C1CC(c2ccccc2)CC(=O)N1c1nnn[nH]1 [CBK291154] | 108.802
8 | COc1cccc(/C=C2/NC(=O)N(Cc3ccc(F)cc3)C2=O)c1OCc1cccc(C(=O)O)c1 [CBK265282] | 98.2578
9 | O=C(C1CCCC1)N1CCCCC1c1n[nH]cc1-c1ccncc1 (centres unmarked) [CBK283427] | 99.3057
10 | N#CC(CC(=O)O)C(Cc1ccccc1)c1ccccc1 (centres unmarked) [CBK286837] | 106.105
11 | COc1ccc(N2CCN(c3cc(-c4cccc(NC(C)=O)c4)ncn3)CC2)cc1OC [CBK091029] | 106.105
12 | c1cnc(N2CCCC2)c(OC2CCOC2)n1 (centres unmarked) [CBK115891] | 73.4183
13 | Cc1cc(C(=O)N2C3CCC2CC(O)(c2ccnn2C)C3)sc1C (centres unmarked) [CBK284518] | 84.8735
14 | Cc1ccc(O)cc1CC[C@@H]1CC(=O)CC2(C)C1CC[C@]2(O)C(=O)COC(=O)CCC(=O)O (some centres unmarked) [CBK007270] | 79.2966
15 | Nc1ccc2c(c1)/C(=C/c1c[nH]c3ncccc13)C(=O)N2 [CBK010155T] | 99.5164
16 | CCNC(=O)Nc1cc2cccnc2nc1-c1ccc(S(C)(=O)=O)cc1 [CBK070706] | 103.111
17 | CCCN1CCCN(c2ccc(-n3ccc(C)n3)nn2)CC1 [CBK306304] | 62.1925
18 | Cc1cc(N2CCCN(C(=O)CCCOc3ccccc3)CC2)ccn1 [CBK307052] | 103.106
19 | CC1CC(C)CN(C(=O)Cn2c(-c3nonc3N)nc3ccccc32)C1 (centres unmarked) [CBK264694] | 100.561
20 | CCCC(C(=O)NCCN(C)C1CCCCC1)n1nc(C)cc1C (centres unmarked) [CBK282039] | 110.884
21 | CCCn1ccc(CNCC(c2ccnn2C)C(C)C)c1 (centres unmarked) [CBK304861] | 76.8714
22 | O=C(Oc1cccc(/C=N/NC(=O)c2ccccn2)c1)c1cccc(Br)c1 [CBK262115] | 92.9201
23 | NC1CCN(C(=O)Cn2c3ccccc3c(=O)c3ccccc32)C1 (centres unmarked) [CBK304300C] | 78.6715
24 | Cc1oc(C(C)(C)C)cc1C(=O)NCCNc1c(Cl)cccc1[N+](=O)[O-] [CBK265032] | 114.16
25 | CCCCNC(=S)N1CC[C@@H]2CN(C)C[C@]2(c2ccc(OC)c(OC)c2)C1 [CBK075101T] | 97.2819
26 | c1ccc2c(c1)OCC(COc1nccnc1OC1CCNCC1)O2 (centres unmarked) [CBK070766T] | 143.852
27 | N#CC1=C(N)n2c(s/c(=C\c3ccc(O)cc3)c2=O)=C(C#N)C1c1ccc(O)cc1 (centres unmarked) [CBK217780] | 110.513

Row | Compound | % of control remaining
28 | NC(=O)N/N=C/c1ccncc1 [CBK260922] | 85.0213
29 | CC(=O)N1CCC2(CCCC[C@H]3CN(C(=O)CCC(C)C)CC[C@@H]3NC(=O)CNC2=O)CC1 [CBK292124] | 105.927
30 | Cc1cc(C(C)(C)C)cc(S(=O)(=O)Nc2ccc(O)c(C(=O)O)c2)c1C [CBK266196] | 131.402
31 | COC(=O)c1ccc(Cl)c(NC(=O)CSc2nnc(-c3ccncc3)[nH]2)c1 [CBK268702] | 115.928
32 | CCNc1cc(-c2cncc(OC)c2)ncn1 [CBK090881] | 95.328
33 | CCOC(=O)c1cnc(SCCc2ccccc2)nc1N [CBK085871] | 84.2539
34 | CC(C)C(=O)Nc1cc2ccccc2c(-c2ccc(OCc3ccccc3)c(F)c2)n1 [CBK073783] | 96.0642
35 | Cc1ccc2[nH]c3nc(N/N=C/c4ccc(-c5cccc([N+](=O)[O-])c5)o4)nnc3c2c1 [CBK262365] | 97.6632
36 | CC(C)Oc1ncccc1OCCO [CBK001465] | 55.9539
37 | CCn1cc(S(=O)(=O)NCC2(c3ccccc3)CCCC2)cn1 [CBK282768] | 108.585
38 | O=C(c1c(NS(=O)(=O)c2cccc3cccnc23)sc2c1CCCC2)N1CCOCC1 [CBK028655] | 88.8227
39 | CC(=O)c1cc2c(cc1NC(=O)CSc1nc3ccccc3[nH]1)OCO2 [CBK266110] | 74.2044
40 | COc1ccccc1N1CCN(C(=O)NCCC(C)C)CC1 [CBK155611] | 81.363
41 | Cc1nn(C(C)CC(=O)N2CCCC(CN(C)C)C2)c(C)c1Cl (centres unmarked) [CBK282137] | 88.13
42 | COc1ccc(/C=N/NS(C)(=O)=O)cc1 [CBK261981] | 92.4494
43 | COc1ccc(C(C)NC(=O)c2cc(-c3ccc(F)cc3)[nH]n2)cc1 (centres unmarked) [CBK288060] | 89.1435
44 | CNC(=O)CSc1nc2ccccc2nc1C(F)(F)F [CBK107206] | 90.8222
45 | Nc1ncc(-c2ccc3c(c2)OCO3)nc1-c1ccc(O)cc1 [CBK122505] | 73.1485
46 | COc1ncccc1CNC(=O)Nc1cccn(CC(F)(F)F)c1=O [CBK305216] | 42.1291
47 | CCOc1cc(/C=C2\SC(=S)N(Cc3cccnc3)C2=O)ccc1OCc1cccc(F)c1 [CBK264615] | 95.5864
48 | Cc1ccc(OCC(=O)O/N=C(\N)c2ccccn2)cc1C [CBK264755] | 124.818
49 | OCCN(CCO)c1cncc(-c2cccc(C(F)(F)F)c2)n1 [CBK037917] | 106.073
50 | O=c1nc2c(cn1[C@H]1C[C@@H](O)[C@@H](CO)O1)Sc1ccccc1N2 [CBK201237] | 138.332
51 | c1ccc(Cn2ccc3c(N4CCNCC4)nccc32)cc1 [CBK051672C] | 101.787
52 | CC(C)(C)OC(=O)N1CCC2(CC1)N=C(c1ccccc1)C(=S)N2 [CBK288478] | 90.1386
53 | CCOc1cc(-c2nc3sc(CC)cc3c(=O)[nH]2)ccc1OCC(=O)O [CBK298291] | 91.9968
54 | Cc1c(C(=O)N2CCC(c3ccncc3)CC2)oc2ccccc12 [CBK282413] | 94.3355

Row | Compound | % of control remaining
55 | COCCSc1ccccc1C(=O)Nc1ccc(S(N)(=O)=O)cc1 [CBK267530] | 93.0779
56 | Cc1cc(N2CCN(C(=O)CCc3nccs3)CC2)nc(C(C)C)n1 [CBK304778] | 28.1324
57 | CC(C)(C)NC(=O)Cn1cncc1-c1[nH]c2ccccc2c1Cl [CBK281981] | 98.1448
58 | CC(C)(CO)Cn1c(=O)[nH]c2ncc(-c3cccnc3)nc21 [CBK064697] | 134.184
59 | O=C(Nc1ccc(F)c(C(F)(F)F)c1)c1cncc(-c2ccc(C(=O)N3CCOCC3)cc2)c1 [CBK160216] | 94.4484
60 | Cc1nc2c(C(=O)NCCNC(=O)c3cccnc3)ncn2c(C)c1Cc1ccc(F)c(Cl)c1 [CBK169332] | 133.014
61 | COc1cc(-c2ccc(C(=O)N(C)CCN(C)C)c(N(C)C)n2)cc(OC)c1OC [CBK106076] | 74.1371
62 | N#CCCn1cc(C(=O)N2CCOCC2)c(-c2cc3ccccc3o2)n1 [CBK306203] | 43.6883
63 | CN(C)c1cccc(Nc2ccc(-c3ccc(CCC(=O)O)cc3)cn2)c1 [CBK036918] | 124.289
64 | CC(C)C(NC(=O)C(C)(C)Oc1ccc(Cl)cc1)C(=O)O (centres unmarked) [CBK266138] | 112.038
65 | CCCCC1CCC(C(=O)Nc2ncccn2)CC1 (centres unmarked) [CBK027423] | 90.547
66 | CC(=O)Nc1ccc(CCOc2nccnc2-c2ccccc2)cc1 [CBK106683] | 95.1109
67 | CS(=O)(=O)N1CCc2cc(S(=O)(=O)N3CCN(c4ccc([N+](=O)[O-])c(NCc5ccccc5)c4)CC3)ccc21 [CBK268311] | 88.4862
68 | COc1cc(C)c(Nc2cccc(-c3ccsc3)n2)cc1OC [CBK037025] | 65.6134
69 | Cn1ccnc1C1(O)CCN(C(=O)c2ccc(F)cc2F)CC1 [CBK283552] | 44.6026
70 | Nc1nonc1C(=O)NCCNc1ccc([N+](=O)[O-])cn1 [CBK268279] | 100.996
71 | COc1cc(C(=O)NCC(=O)O)cc(Cl)c1OCC(C)C [CBK297485] | 85.3391
72 | COc1cc(C(=O)N2CCCC3(CCN(C(=O)c4cc(F)c(F)cc4F)C3)C2)cc(OC)c1OC (centres unmarked) [CBK131563] | 85.1099
73 | Cc1cc(C(=O)N2CCN(c3ncccn3)CC2)n[nH]1 [CBK144526] | 100.466
74 | O=C(NC1CCNC1)c1cccc(S(=O)(=O)NCc2ccsc2)c1 (centres unmarked) [CBK306706] | 112.545
75 | CCCNC(=O)Cn1c(=O)n(Cc2cccs2)c2ncccc21 [CBK283843] | 80.1287
76 | COc1cc2c3c(cccc3c1)CC(C)(N(C)C)C2 (centres unmarked) [CBK024357C] | 91.3266
77 | Cn1cc(-c2ccccc2CN2CCCC2)c2onc(-c3ccccc3)c2c1=O [CBK036319C] | 111.182
78 | CCCn1c(=O)c(Cc2ccccc2)c(O)c2ccccc21 [CBK291175] | 99.4647
79 | NS(=O)(=O)c1ccc(Cl)c(Cl)c1 [CBK015652] | 90.1269
80 | Cc1nc(N)c(CNC2CCCCC2)c(O)n1 [CBK019809] | 20.6868
